According to article PMC4336329 (PLoS ONE, 2015):
The campaign covered roughly 310,000 compounds. About 2,200 (0.71%) showed an effect of 50% or more. The effect is printed as a negative number. The list shows a part of the results.

Target: human ether-à-go-go-related gene (hERG) potassium channel (human, UniProt Q12809)
Experiment: primary screen, population patch clamp on CHO cells stably expressing hERG

human ether-à-go-go-related gene (hERG) potassium channel, sequence (Q12809 whole entry, looked up): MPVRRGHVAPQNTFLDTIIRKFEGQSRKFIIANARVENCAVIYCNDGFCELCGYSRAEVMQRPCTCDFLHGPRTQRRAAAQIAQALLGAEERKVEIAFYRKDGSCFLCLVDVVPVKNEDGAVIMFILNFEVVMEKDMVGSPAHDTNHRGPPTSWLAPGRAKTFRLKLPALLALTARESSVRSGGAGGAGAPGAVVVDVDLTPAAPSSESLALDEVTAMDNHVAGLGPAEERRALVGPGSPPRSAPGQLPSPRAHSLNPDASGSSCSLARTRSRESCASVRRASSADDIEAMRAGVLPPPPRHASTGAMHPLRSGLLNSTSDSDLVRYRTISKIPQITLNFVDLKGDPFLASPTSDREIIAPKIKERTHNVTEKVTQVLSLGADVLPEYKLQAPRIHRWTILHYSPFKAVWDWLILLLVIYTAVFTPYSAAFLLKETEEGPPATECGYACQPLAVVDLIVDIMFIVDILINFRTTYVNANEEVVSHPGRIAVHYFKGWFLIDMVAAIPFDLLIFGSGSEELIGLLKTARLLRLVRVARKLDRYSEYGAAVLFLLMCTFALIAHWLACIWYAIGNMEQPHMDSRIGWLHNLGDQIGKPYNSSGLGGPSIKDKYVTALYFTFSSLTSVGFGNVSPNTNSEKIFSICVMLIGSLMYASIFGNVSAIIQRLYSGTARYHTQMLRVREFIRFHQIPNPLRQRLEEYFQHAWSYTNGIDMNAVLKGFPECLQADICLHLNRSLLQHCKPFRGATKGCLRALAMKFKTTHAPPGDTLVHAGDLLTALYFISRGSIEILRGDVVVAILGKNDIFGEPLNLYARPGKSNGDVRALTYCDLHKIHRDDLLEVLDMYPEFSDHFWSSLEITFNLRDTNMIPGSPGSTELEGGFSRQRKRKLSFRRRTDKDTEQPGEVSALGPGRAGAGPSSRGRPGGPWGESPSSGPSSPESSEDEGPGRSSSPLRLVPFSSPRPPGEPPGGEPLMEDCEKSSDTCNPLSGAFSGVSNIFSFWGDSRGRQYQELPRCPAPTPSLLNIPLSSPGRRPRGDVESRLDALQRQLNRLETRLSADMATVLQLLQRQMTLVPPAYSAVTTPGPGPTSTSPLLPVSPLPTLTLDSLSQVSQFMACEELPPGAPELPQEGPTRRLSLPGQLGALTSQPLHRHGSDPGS

Row | SMILES | hERG current change (%, negative = inhibition) at 1uM
1 | COc1ccc(-c2nn(-c3ccccc3)cc2CN2CCCO2)c(F)c1 | 5.63%
2 | CCc1c(C(=O)NCc2ccc3c(c2)OCO3)[nH]c(C)c1C(C)=O | 2.96%
3 | CCCCCC(=O)Nc1c(-c2cccs2)c(=O)c2ccccc2n1C | -1.1%
4 | COCCCN1C(=O)C(=O)/C(=C(/O)c2ccc(OC(C)C)cc2)C1c1ccc(O)c(OC)c1 (stereo not shown) | 5.77%
5 | Cc1ccc(CN2CC34C=CC(O3)C(C(=O)NCc3ccc5c(c3)OCO5)C4C2=O)cc1 (stereo not shown) | 0.0257%
6 | CC(=O)c1oc2ccccc2c1NC(=O)CN1CCCCC1.Cl | 13%
7 | CCn1c(SCC(=O)NNC(=O)c2ccc(OC)cc2)nnc1-c1ccco1 | 4.07%
8 | Cc1nnnn1/C(=C\c1ccccc1)C(=O)OCC(=O)Nc1cccc(S(=O)(=O)N(C)C)c1 | 1.81%
9 | COc1cccc(CNC(=O)CSc2cc(=O)n(C)c3ccccc23)c1 | 10.4%
10 | Cc1noc(C)c1C(=O)NCCC1=CCCCC1 | -2.28%
11 | CC1CCC(NC(=O)c2ccc(CS(=O)(=O)Cc3ccccc3F)o2)CC1 (stereo not shown) | -6.45%
12 | Cn1c(=O)c(C(=O)COC(=O)c2cc(C3CC3)nc3ccccc23)c(N)n(Cc2ccccc2)c1=O | 14.2%
13 | Cc1cc(NS(=O)(=O)c2ccc(NC(=O)CSc3nc4ncc(Br)cc4[nH]3)cc2)nc(C)n1 | 13.9%
14 | CC(=O)Nc1ccc(NC(=S)NC(=O)/C=C/c2ccccc2)cc1 | 7.76%
15 | NC(=O)c1nsc(C(=O)N(Cc2cccnc2)C(C(=O)NCc2ccccc2)c2ccc(O)cc2)c1N (stereo not shown) | 10.5%
16 | Cc1cc(C)cc(NC(=O)CSc2nnc(NC(=O)C3CC3)s2)c1 | 15.9%
17 | O=C(Nc1cc(S(=O)(=O)N2CCOCC2)ccc1N1CCOCC1)c1cnccn1 | 6.97%
18 | O=c1[nH]c(=O)c2nc3c4ccccc4c4ccccc4c3nc2[nH]1 | 8.18%
19 | CCCc1nc(C(C)(C)O)c(C(=O)O)n1Cc1ccc(-c2ccccc2-c2nn[nH]n2)cc1 | 4.96%
20 | CN1CCN(c2ccc(NC(=O)c3cccs3)cc2)CC1 | 15.3%
21 | COc1cc(NC(=O)CSc2nnc(NC(C)C)s2)cc(OC)c1OC | 12.7%
22 | O=C(C1=C[C@H](c2csc3ccccc23)C[C@H](OCc2ccc(CO)cc2)O1)N1CCCCCCC1 | 9.3%

Row | SMILES | hERG current change (%, negative = inhibition) at 1uM
23 | O=C(COC(=O)Cc1ccc(F)cc1)NC1CCCCC1 | 13%
24 | COc1ccc(CCn2c(SCCN3CCCCC3)nc3ccccc3c2=O)cc1OC | -8.22%
25 | COC(=O)CC1C(=O)NCCN1C(=S)NC(=O)c1sc2ccccc2c1Cl (stereo not shown) | 5.08%
26 | COc1cccc(NC(=O)c2c([N+](=O)[O-])cnn2C)c1 | 15.3%
27 | O=C(CCN1C(=O)c2ccccc2S1(=O)=O)Nc1nc2c(s1)CCCC2 | 8.87%
28 | COc1ccc(CCn2cnc3c([nH]c4ccccc43)c2=O)cc1 | 11%
29 | Cc1ccc(CN2CCCC(CO)(Cc3ccccc3C)C2)s1 (stereo not shown) | 6.49%
30 | COc1ccc(CN2C(=NC(=O)C3CCCO3)SC3CS(=O)(=O)CC32)cc1 (stereo not shown) | -1.04%
31 | Cc1ccc(C(=O)NCC(=O)OCC(=O)N(CC(C)C)c2c(N)n(Cc3ccccc3)c(=O)[nH]c2=O)cc1 | -4.67%
32 | Cc1c(CN2CCC(CO)(CC3CCCCO3)CC2)cnn1C (stereo not shown) | 21.7%
33 | CC(C)(C)c1ccc(C(=O)NCC(=O)OCC(=O)Nc2ccccc2[N+](=O)[O-])cc1 | 6.55%
34 | CCc1nc(SCC(=O)c2cc(C)ccc2C)n[nH]1 | 5.96%
35 | COc1ccc(CCNC(=O)COC(=O)c2cc(OC)c(OC)cc2OC)cc1 | 6.48%
36 | O=C1N[C@@H](Cc2ccccc2)C(=O)N2[C@H]3Nc4ccccc4[C@@]3([C@]34C[C@H]5C(=O)N[C@@H](Cc6ccccc6)C(=O)N5[C@H]3Nc3ccccc34)C[C@@H]12 | 16.8%
37 | Cc1[nH]n(-c2cccc3ccccc23)c(=O)c1/C=N/c1sc2c(c1C#N)CCC2 | 9.06%
38 | Cc1c(NS(=O)(=O)c2ccc(C(=O)NCc3ccccc3)cc2)c(=O)n(-c2ccccc2)n1C | 4.95%
39 | Cc1ccsc1-c1nc(CN(C)C(C2CC2)C2CC2)c(C)o1 | -48.7%
40 | Cl.Clc1ccc2sc(C3CCNCC3)nc2c1 | 15.8%
41 | COc1ccc(NC(=O)CSc2nnnn2C2CC2)cc1S(=O)(=O)N1CCOCC1 | 10.6%
42 | Cc1oc(-c2ccccc2)cc1C(=O)Nc1ccc2ccccc2c1 | 10.9%
43 | O=C(c1ccc2c3c(cccc13)CC2)C1CCCN(Cc2ccc(OCCO)cc2)C1 (stereo not shown) | 10.8%
